Earlier results in US20240342171A1, “DISCOVERY OF A F-ATP SYNTHASE INHIBITOR FOR THE TREATMENT OF MYCOBACTERIUM ABSCESSUS DISEASES” (priority 2021, published 2024).

Tested on: M. abscessus

Compound | higher potency against M. tuberculosis than M. abscessus [×]
COc1cc([C@](O)(CCN(C)C)[C@@H](c2cc3cc(Br)ccc3nc2OC)c2cc(OC)nc(OC)c2OC)cc(OC)n1 [TBAJ876] | 100
COc1nc2ccc(Br)cc2cc1[C@@H](c1ccccc1)[C@@](O)(CCN(C)C)c1cccc2ccccc12 [BDQ, bedaquiline] | 100
